From PubChem BioAssay AID1468 (National Center for Advancing Translational Sciences (NCATS), 2008)
Among all 280,000 compounds or so, about 1,100 (0.39%) were called active. This list was built around the results that the source calls inconclusive (neither active nor inactive); the mix of calls is not that of the screen. Calls follow the shape of the dose curve; as a rule, active = well fitted inhibition curve with a large enough effect; inconclusive = small, poorly fitted or top-dose-only effect, or effect the other way; inactive = flat fitted curve, though single readings scatter. No potency is given beside an inconclusive call; the fits are too rough.

biological target: Microtubule-associated protein tau (Homo sapiens) (UniProt P10636); assay: qHTS for Inhibitors of Tau Fibril Formation, Fluorescence Polarization; conditions: K18 P301L tau heparin fibrillization, Alexa594 FP, 6 h; series mostly up to 57.7 µM; also: nearly all actives have a fitted effect of over 55% in size
Text: NIH Molecular Libraries Probe Production Network [MLPCN]
NIH Chemical Genomics Center [NCGC]
Assay Provider: Carlo Ballatore, University of Pennsylvania
The microtubule-associated protein tau is an abundant protein in the axons of neurons that stabilizes microtubules. With its ability to modulate microtubule dynamics, tau contributes directly or indirectly, to key structural and regulatory cellular functions. Particularly important is the influence tau exerts on axonal transport, which allows signaling molecules, trophic factors and other essential cellular constituents to travel along the axons. Under pathological conditions, tau becomes sequestered into insoluble aggregates called neurofibrillary tangles. This phenomenon is believed to have pathological consequences by promoting axonal transport deficits that ultimately lead to synaptic dysfunction and neuronal loss. […]
For screening, 2 uL/well human K18 P301L (15 uM unlabeled and 0.24 uM Alexa 594-labeled tau final concentrations) in reagent buffer (100 mM sodium acetate pH 7) was dispensed into black solid 1536-well plates (Grenier) using a solenoid-based dispenser. […] After a 1 hr ambient incubation, the plates were read by an Envision (Perkin Elmer) to monitor Alexa 594 FP (555 nm excitation and 632 nm emission). […]
Potency is read from the fitted curve at half-maximal effect; tags tell the direction and shape of the fitted curve.

UniProt P10636, sequence (P10636 whole entry, looked up): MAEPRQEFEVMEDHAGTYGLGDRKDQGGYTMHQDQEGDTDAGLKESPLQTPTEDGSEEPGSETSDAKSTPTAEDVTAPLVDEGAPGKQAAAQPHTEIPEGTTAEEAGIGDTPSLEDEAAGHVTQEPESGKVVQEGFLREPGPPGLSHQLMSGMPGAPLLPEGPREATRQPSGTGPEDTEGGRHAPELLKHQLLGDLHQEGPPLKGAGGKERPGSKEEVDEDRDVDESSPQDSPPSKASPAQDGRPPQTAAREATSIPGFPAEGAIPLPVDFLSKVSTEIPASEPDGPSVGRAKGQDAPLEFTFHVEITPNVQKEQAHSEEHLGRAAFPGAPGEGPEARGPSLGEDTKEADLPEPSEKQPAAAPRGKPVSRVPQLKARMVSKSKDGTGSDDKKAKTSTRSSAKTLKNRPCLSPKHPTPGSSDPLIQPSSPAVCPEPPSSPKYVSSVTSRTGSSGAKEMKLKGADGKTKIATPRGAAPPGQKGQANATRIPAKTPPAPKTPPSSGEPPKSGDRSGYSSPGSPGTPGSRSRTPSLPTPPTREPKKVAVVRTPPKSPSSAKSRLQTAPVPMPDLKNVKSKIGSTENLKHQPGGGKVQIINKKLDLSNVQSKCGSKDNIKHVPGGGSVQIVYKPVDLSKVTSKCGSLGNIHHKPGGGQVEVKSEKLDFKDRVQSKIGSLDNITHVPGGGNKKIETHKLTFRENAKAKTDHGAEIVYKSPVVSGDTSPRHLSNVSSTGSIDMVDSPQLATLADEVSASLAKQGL

SMILES | Potency
O=C(O)Cn1cc(/C=c2/sc3nc4ccccc4n3c2=O)c2ccccc21 | inconclusive [inhibitor, partial curve, poor fit]
O=C(Nc1ccc(-c2nc3ccccc3[nH]2)cc1)c1ccccc1NS(=O)(=O)c1ccc(F)cc1 | inconclusive [inhibitor, partial curve]
